Measured values: patent publication US20230145835A1, “Modulators of Alpha-4-beta-7 Integrin and MAdCAM” (48HD Biopharma Inc., priority 2021, published 2023)
At least one peptide structure holds a part that was inferred or is arguable (an end, a ring closure or a residue). At least one compound was matched to its structure with a doubt left. Numbered stars: 1 amine (or outer) side, 2 acyl side, 3 side chain; on linkers, the order of the positions; unused ones are H or OH. Bridge positions count the residues as written; N and C are the ends. Square brackets hold non-standard residues; d marks the D form. Peptide text beside a SMILES is read from it. X1 = O=C(C=NOCCCCCCOc1cc(C[*:2])cc(C[*:3])c1)[*:1]; X5 = O=C(CCCCCCOc1cc(C[*:2])cc(C[*:3])c1)[*:1]; hSer = N[C@@H](CCO)C(=O)O; Nle = CCCC[C@H](N)C(=O)O

Biological target: T1, rh-integrin α4β7/LPAM-1 (Homo sapiens, UniProt P13612+P26010)
T1 sequence (P13612 34-977 limits assumed): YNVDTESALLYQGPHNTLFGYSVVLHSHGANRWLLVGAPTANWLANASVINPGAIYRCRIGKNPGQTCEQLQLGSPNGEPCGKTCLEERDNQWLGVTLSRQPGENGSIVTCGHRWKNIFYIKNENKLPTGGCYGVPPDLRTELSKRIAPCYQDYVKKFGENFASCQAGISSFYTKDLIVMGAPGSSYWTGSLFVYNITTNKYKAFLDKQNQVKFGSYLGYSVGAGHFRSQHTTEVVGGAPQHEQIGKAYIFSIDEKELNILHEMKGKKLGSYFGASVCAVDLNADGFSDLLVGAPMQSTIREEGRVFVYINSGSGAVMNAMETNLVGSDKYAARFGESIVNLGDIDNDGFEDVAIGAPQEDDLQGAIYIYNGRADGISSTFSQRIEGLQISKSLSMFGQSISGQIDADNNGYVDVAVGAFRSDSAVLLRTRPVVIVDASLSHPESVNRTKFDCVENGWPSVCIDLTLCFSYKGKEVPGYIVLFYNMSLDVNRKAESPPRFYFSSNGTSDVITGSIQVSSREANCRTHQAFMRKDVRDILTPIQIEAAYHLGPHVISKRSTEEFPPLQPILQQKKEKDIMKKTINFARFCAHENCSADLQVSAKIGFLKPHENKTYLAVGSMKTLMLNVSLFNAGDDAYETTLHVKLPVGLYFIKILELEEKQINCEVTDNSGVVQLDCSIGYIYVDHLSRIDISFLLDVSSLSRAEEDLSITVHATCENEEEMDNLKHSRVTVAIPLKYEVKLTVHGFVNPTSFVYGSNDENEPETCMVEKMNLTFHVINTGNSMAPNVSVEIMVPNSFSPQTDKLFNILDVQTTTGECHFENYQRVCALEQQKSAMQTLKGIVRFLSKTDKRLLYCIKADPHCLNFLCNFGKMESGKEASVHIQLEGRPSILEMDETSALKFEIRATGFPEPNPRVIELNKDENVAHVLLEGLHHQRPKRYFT
T1 sequence (P26010 20-723 limits assumed): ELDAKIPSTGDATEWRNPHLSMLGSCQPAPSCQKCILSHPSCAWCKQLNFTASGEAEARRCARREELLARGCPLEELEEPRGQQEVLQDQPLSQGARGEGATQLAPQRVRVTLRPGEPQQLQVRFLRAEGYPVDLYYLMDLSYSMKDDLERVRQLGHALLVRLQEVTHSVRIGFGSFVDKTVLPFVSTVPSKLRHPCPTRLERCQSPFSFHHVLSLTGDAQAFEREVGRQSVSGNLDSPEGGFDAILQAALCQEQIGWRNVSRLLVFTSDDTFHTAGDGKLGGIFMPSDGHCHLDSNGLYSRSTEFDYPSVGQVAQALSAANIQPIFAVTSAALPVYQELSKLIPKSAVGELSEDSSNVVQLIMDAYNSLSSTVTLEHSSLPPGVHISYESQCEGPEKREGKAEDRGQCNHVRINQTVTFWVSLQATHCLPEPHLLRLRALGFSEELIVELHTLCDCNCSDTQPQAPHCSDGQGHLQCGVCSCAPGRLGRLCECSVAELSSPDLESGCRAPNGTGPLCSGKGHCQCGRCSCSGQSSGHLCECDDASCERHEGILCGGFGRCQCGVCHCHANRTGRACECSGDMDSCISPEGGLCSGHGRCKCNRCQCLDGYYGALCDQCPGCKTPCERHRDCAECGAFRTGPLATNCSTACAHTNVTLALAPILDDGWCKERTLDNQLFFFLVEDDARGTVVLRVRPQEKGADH
Test: α4β7-MadCAM Competition ELISA (Example 4)
Type: binding
Details: 4 μg/mL α4β7 coated, MAdCAM and peptide mixture, 28° C.
Procedure: After washing with wash buffer, 200 μL assay buffer was added to each well and incubated for one hour at 28° C. After another wash with wash buffer, 100 μL of a MAdCAM and peptide mixture in assay buffer was added to each well and incubated for one hour at 28° C., followed by washing with wash buffer.

Compound	IC50 [µM]
CC(C)C[C@@H]1NC(=O)[C@@H]2CCCN2C(=O)[C@@H]2CSCc3cc(cc(c3)OCCCCCCON=CC(=O)N[C@@H](CCCCN)C(=O)N2)CSC[C@@H](C(=O)O)NC(=O)[C@H](C)NC(=O)[C@H](Cc2ccc(O)cc2)NC(=O)[C@@H]2CCCN2C(=O)[C@H]([C@@H](C)O)NC(=O)[C@H](CC(=O)O)NC1=O [SEQ ID NO: 129] (KCPLDTPYAC-OH; linker N-2-10 via X1; C-terminus assumed)	0.517
CSCC[C@@H]1NC(=O)[C@@H]2CCCN2C(=O)[C@@H]2CSCc3cc(cc(c3)OCCCCCCON=CC(=O)N[C@@H](CCCNC(=N)N)C(=O)N2)CSC[C@@H](C(=O)O)NC(=O)[C@H](CCC(=O)O)NC(=O)CNC(=O)[C@H](C)NC(=O)[C@H](C(C)C)NC(=O)[C@H](CC(=O)O)NC1=O [SEQ ID NO: 130] (RCPMDVAGEC-OH; linker N-2-10 via X1; C-terminus assumed)	0.511
CCCC[C@@H]1NC(=O)[C@@H]2CCCN2C(=O)[C@@H]2CSCc3cc(cc(c3)OCCCCCCC(=O)NCC(=O)N[C@@H](CCCCN)C(=O)N2)CSC[C@@H](C(=O)O)NC(=O)[C@H](CCCCN)NC(=O)[C@H](C(C)C)NC(=O)[C@H](Cc2c[nH]c3ccccc23)NC(=O)[C@H]([C@@H](C)CC)NC(=O)[C@H](CC(=O)O)NC1=O [SEQ ID NO: 132] (GKCP[Nle]DIWVKC-OH; linker N-3-11 via X5; C-terminus assumed)	0.45
CC[C@H](C)[C@@H]1NC(=O)[C@H](CC(=O)O)NC(=O)[C@H](CCSC)NC(=O)[C@@H]2CCCN2C(=O)[C@@H]2CSCc3cc(cc(c3)OCCCCCCON=CC(=O)N[C@@H](CCCNC(=N)N)C(=O)N2)CSC[C@@H](C(=O)O)NC(=O)[C@H]([C@@H](C)O)NC(=O)[C@@H]2CCCN2C1=O [SEQ ID NO: 133] (RCPMDIPTC-OH; linker N-2-9 via X1; C-terminus assumed)	0.404
CC[C@H](C)[C@@H]1NC(=O)[C@H](CC(=O)O)NC(=O)[C@H](CCSC)NC(=O)[C@@H]2CCCN2C(=O)[C@@H]2CSCc3cc(cc(c3)OCCCCCCON=CC(=O)N[C@@H](CCCCN)C(=O)N2)CSC[C@@H](C(=O)O)NC(=O)[C@H]([C@@H](C)O)NC(=O)[C@@H]2CCCN2C1=O [SEQ ID NO: 135] (KCPMDIPTC-OH; linker N-2-9 via X1; C-terminus assumed)	0.345
CC(C)C[C@@H]1NC(=O)[C@@H]2CCCN2C(=O)[C@@H]2CSCc3cc(cc(c3)OCCCCCCON=CC(=O)N[C@@H](CCCNC(=N)N)C(=O)N2)CSC[C@@H](C(=O)O)NC(=O)[C@H](CCC(=O)O)NC(=O)[C@H](Cc2ccc(O)cc2)NC(=O)[C@@H]2CCCN2C(=O)[C@H]([C@@H](C)O)NC(=O)[C@H](CC(=O)O)NC1=O [SEQ ID NO: 136] (RCPLDTPYEC-OH; linker N-2-10 via X1; C-terminus assumed)	0.307
CC[C@H](C)[C@@H]1NC(=O)[C@H](CC(=O)O)NC(=O)[C@H](CCSC)NC(=O)[C@@H]2CCCN2C(=O)[C@@H]2CSCc3cc(cc(c3)OCCCCCCON=CC(=O)N[C@@H](CCCNC(=N)N)C(=O)N2)CSC[C@@H](C(=O)O)NC(=O)[C@H](CCC(=O)O)NC(=O)[C@H](CCC(N)=O)NC(=O)[C@H](Cc2c[nH]c3ccccc23)NC1=O [SEQ ID NO: 137] (RCPMDIWQEC-OH; linker N-2-10 via X1; C-terminus assumed)	0.272
CC[C@H](C)[C@@H]1NC(=O)[C@H](CC(=O)O)NC(=O)[C@H](CCOC)NC(=O)[C@@H]2CCCN2C(=O)[C@@H]2CSCc3cc(cc(c3)OCCCCCCON=CC(=O)N[C@@H](CCCNC(=N)N)C(=O)N2)CSC[C@@H](C(=O)O)NC(=O)[C@H](CCC(=O)O)NC(=O)[C@H](CCC(N)=O)NC(=O)[C@H](Cc2c[nH]c3ccccc23)NC1=O [SEQ ID NO: 139] (RCP[hSer](Me)DIWQEC-OH; linker N-2-10 via X1; C-terminus assumed)	0.26
CC[C@H](C)[C@@H]1NC(=O)[C@H](CC(=O)O)NC(=O)[C@H](CCSC)NC(=O)[C@@H]2CCCN2C(=O)[C@@H]2CSCc3cc(cc(c3)OCCCCCCON=CC(=O)N[C@@H](CCCNC(=N)N)C(=O)N2)CSC[C@@H](C(=O)O)NC(=O)[C@H](CCC(=O)O)NC(=O)CNC(=O)[C@H](C)NC1=O [SEQ ID NO: 140] (RCPMDIAGEC-OH; linker N-2-10 via X1; C-terminus assumed)	0.227
CCCC[C@@H]1NC(=O)[C@@H]2CCCN2C(=O)[C@@H]2CSCc3cc(cc(c3)OCCCCCCON=CC(=O)N[C@@H](CCCNC(=N)N)C(=O)N2)CSC[C@@H](C(=O)O)NC(=O)[C@H](CCC(=O)O)NC(=O)[C@H](C)NC(=O)[C@H](C)NC(=O)[C@H]([C@@H](C)CC)NC(=O)[C@H](CC(=O)O)NC1=O [SEQ ID NO: 141] (RCP[Nle]DIAAEC-OH; linker N-2-10 via X1; C-terminus assumed)	0.204
CC[C@H](C)[C@@H]1NC(=O)[C@H](CC(=O)O)NC(=O)[C@H](CC(C)C)NC(=O)[C@@H]2CCCN2C(=O)[C@@H]2CSCc3cc(cc(c3)OCCCCCCON=CC(=O)N[C@@H](CCCCN)C(=O)N2)CSC[C@@H](C(=O)O)NC(=O)[C@H](CCC(=O)O)NC(=O)[C@H](Cc2ccc(O)cc2)NC(=O)[C@@H]2CCCN2C1=O [SEQ ID NO: 142] (KCPLDIPYEC-OH; linker N-2-10 via X1; C-terminus assumed)	0.198
CC(C)C[C@@H]1NC(=O)[C@@H]2CCCN2C(=O)[C@@H]2CSCc3cc(cc(c3)OCCCCCCON=CC(=O)N[C@@H](CCCCN)C(=O)N2)CSC[C@@H](C(=O)O)NC(=O)[C@H](CCC(=O)O)NC(=O)[C@H](Cc2ccc(O)cc2)NC(=O)[C@@H]2CCCN2C(=O)[C@H](C(C)C)NC(=O)[C@H](CC(=O)O)NC1=O [SEQ ID NO: 143] (KCPLDVPYEC-OH; linker N-2-10 via X1; C-terminus assumed)	0.188
CCCC[C@@H]1NC(=O)[C@@H]2CCCN2C(=O)[C@@H]2CSCc3cc(cc(c3)OCCCCCCON=CC(=O)N[C@@H](CCCNC(=N)N)C(=O)N2)CSC[C@@H](C(=O)O)NC(=O)[C@H](CCC(=O)O)NC(=O)[C@H](CCC(N)=O)NC(=O)[C@H](Cc2c[nH]c3ccccc23)NC(=O)[C@H]([C@@H](C)CC)NC(=O)[C@H](CC(=O)O)NC1=O [SEQ ID NO: 144] (RCP[Nle]DIWQEC-OH; linker N-2-10 via X1; C-terminus assumed)	0.187
CCCC[C@@H]1NC(=O)[C@@H]2CCCN2C(=O)[C@@H]2CSCc3cc(cc(c3)OCCCCCCON=CC(=O)N[C@@H](CCCNC(=N)N)C(=O)N2)CSC[C@@H](C(=O)O)NC(=O)[C@H](CCC(=O)O)NC(=O)[C@H](Cc2ccc(O)cc2)NC(=O)[C@H](Cc2c[nH]c3ccccc23)NC(=O)[C@H](C(C)C)NC(=O)[C@H](CC(=O)O)NC1=O [SEQ ID NO: 145] (RCP[Nle]DVWYEC-OH; linker N-2-10 via X1; C-terminus assumed)	0.13
CC(=O)N[C@H]1CSSC[C@@H](C(=O)O)NC(=O)[C@H](CC(C)C)NC(=O)[C@H]([C@@H](C)O)NC(=O)[C@H](CC(=O)O)NC(=O)[C@H](CO)NC(=O)[C@H](CCCNC(=N)N)NC1=O [SEQ ID NO: 146] (Ac-CRSDTLC-OH; disulfide 1-7; C-terminus assumed)	0.122
CC(C)C[C@@H]1NC(=O)[C@H]([C@@H](C)O)NC(=O)[C@H](CC(=O)O)NC(=O)[C@H](CO)NC(=O)[C@H](CCCNC(=N)N)N(C)C(=O)CCSC[C@@H](C(=O)N[C@@H](Cc2c[nH]c3ccccc23)C(=O)N[C@@H](CCCCN)C(=O)O)NC1=O [SEQ ID NO: 149]	0.033
CC(C)C[C@@H]1NC(=O)[C@H]([C@@H](C)O)NC(=O)[C@H](CC(=O)O)NC(=O)[C@H](CO)NC(=O)[C@H](CCCNC(=N)N)N(C)C(=O)c2ccccc2CSC(C)(C)[C@@H](C(=O)N[C@@H](Cc2c[nH]c3ccccc23)C(=O)N[C@@H](CCC(=O)O)C(N)=O)NC1=O [SEQ ID NO: 150]	0.003
